Test results: the supplement of paper PMC12217912
This is one part of the list. The full chains were built here from the parent and the listed change. Values near 0.05 are background.

B1: TEV protease; numbered along this chain (parent)
chain: MGESLFKGPRDYNPISSSICHLTNESDGHTTSLYGIGFGPFIITNKHLFRRNNGTLVVQSLHGVFKVKDTTTLQQHLVDGRDMIIIRMPKDFPPFPQKLKFREPQREERICLVTTNFQTKSMSSMVSDTSCTFPSGDGIFWKHWIQTKDGQCGSPLVSTRDGFIVGIHSASNFTNTNNYFTSVPKNFMELLTNQEAQQWVSGWRLNADSVLWGGHKVFMVKPEEPFQPVKEATQL

Variants of: B1
Assay: raw area under fraction-flipped curve 0-4 h after induction (AUC4h, not background-subtracted), DNA-recorder readout of cleavage of the substrate (dimensionless); higher = more cleavage of the substrate by the protease variant
Settings: temperature: 34 °C; time window: 0-4 h after rhamnose induction
Description: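 In vivo DNA recorder in E. coli TOP10(DE3) ΔrhaA at 34 °C. Each TEVp single-site mutant (parent TEVp 0) is paired with a single-site variant of the 7-mer TEVs (canonical ENLYFQ|S). The substrate sits between flexible linkers in a Bxb1-sfGFP-TEVs-SsrA fusion, so cleavage stabilises Bxb1 and speeds flipping of a recombination array, read by NGS. The value is the raw area under the fraction-flipped curve over 0-4 h after rhamnose induction (AUC4h), with ≥20 reads per time point. It is not background-subtracted; inactive controls average about 0.047.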
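Note: Bxb1 expression induced with 0.2% (w/v) L-rhamnose at OD600 near 0.5, cultures sampled hourly, flipped fraction per protease–substrate barcode pair counted by paired-end Illumina sequencing.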

MGESLFKGPRDYNPISSSICHTTNESDGHTTSLYGIGFGPFIITNKHLFRRNNGTLVVQSLHGVFKVKDTTTLQQHLVDGRDMIIIRMPKDFPPFPQKLKFREPQREERICLVTTNFQTKSMSSMVSDTSCTFPSGDGIFWKHWIQTKDGQCGSPLVSTRDGFIVGIHSASNFTNTNNYFTSVPKNFMELLTNQEAQQWVSGWRLNADSVLWGGHKVFMVKPEEPFQPVKEATQL [L22T]
area with substrate EALYFQS: 0.0634 | area with substrate ECLYFQS: 0.0563 | area with substrate EDLYFQS: 0.0531 | area with substrate EELYFQS: 0.059 | area with substrate EGLYFQS: 0.0535 | area with substrate EHLYFQS: 0.0451 | area with substrate EILYFQS: 0.0487 | area with substrate ELLYFQS: 0.0498 | area with substrate EPLYFQS: 0.088 | area with substrate EQLYFQS: 0.0596 | area with substrate ERLYFQS: 0.0551 | area with substrate ESLYFQS: 0.0499 | area with substrate EVLYFQS: 0.0516 | area with substrate EYLYFQS: 0.0331

MGESLFKGPRDYNPISSSICHRTNESDGHTTSLYGIGFGPFIITNKHLFRRNNGTLVVQSLHGVFKVKDTTTLQQHLVDGRDMIIIRMPKDFPPFPQKLKFREPQREERICLVTTNFQTKSMSSMVSDTSCTFPSGDGIFWKHWIQTKDGQCGSPLVSTRDGFIVGIHSASNFTNTNNYFTSVPKNFMELLTNQEAQQWVSGWRLNADSVLWGGHKVFMVKPEEPFQPVKEATQL [L22R]
area with substrate EALYFQS: 0.0382 | area with substrate EDLYFQS: 0.039 | area with substrate EGLYFQS: 0.0458 | area with substrate EHLYFQS: 0.0625 | area with substrate EILYFQS: 0.0441 | area with substrate EKLYFQS: 0.0525 | area with substrate ELLYFQS: 0.0664 | area with substrate EPLYFQS: 0.0552 | area with substrate ERLYFQS: 0.0571 | area with substrate ESLYFQS: 0.0446 | area with substrate EVLYFQS: 0.0396 | area with substrate EWLYFQS: 0.042 | area with substrate EYLYFQS: 0.103

MGESLFKGPRDYNPISSSICHLTNESTGHTTSLYGIGFGPFIITNKHLFRRNNGTLVVQSLHGVFKVKDTTTLQQHLVDGRDMIIIRMPKDFPPFPQKLKFREPQREERICLVTTNFQTKSMSSMVSDTSCTFPSGDGIFWKHWIQTKDGQCGSPLVSTRDGFIVGIHSASNFTNTNNYFTSVPKNFMELLTNQEAQQWVSGWRLNADSVLWGGHKVFMVKPEEPFQPVKEATQL [D27T]
area with substrate EALYFQS: 0.0917 | area with substrate ECLYFQS: 0.0828 | area with substrate EHLYFQS: 0.0769 | area with substrate EILYFQS: 0.0888 | area with substrate EKLYFQS: 0.0843 | area with substrate ELLYFQS: 0.0711 | area with substrate EPLYFQS: 0.108 | area with substrate EQLYFQS: 0.102 | area with substrate ERLYFQS: 0.0923 | area with substrate ESLYFQS: 0.0747 | area with substrate EVLYFQS: 0.0699 | area with substrate EWLYFQS: 0.0784

MGESLFKGPRDYNPISSSICHLTNQSDGHTTSLYGIGFGPFIITNKHLFRRNNGTLVVQSLHGVFKVKDTTTLQQHLVDGRDMIIIRMPKDFPPFPQKLKFREPQREERICLVTTNFQTKSMSSMVSDTSCTFPSGDGIFWKHWIQTKDGQCGSPLVSTRDGFIVGIHSASNFTNTNNYFTSVPKNFMELLTNQEAQQWVSGWRLNADSVLWGGHKVFMVKPEEPFQPVKEATQL [E25Q]
area with substrate EALYFQS: 0.137 | area with substrate ECLYFQS: 0.125 | area with substrate EELYFQS: 0.135 | area with substrate EFLYFQS: 0.127 | area with substrate EGLYFQS: 0.0889 | area with substrate EMLYFQS: 0.107 | area with substrate EPLYFQS: 0.0956 | area with substrate EQLYFQS: 0.138 | area with substrate ERLYFQS: 0.0952 | area with substrate ESLYFQS: 0.0088 | area with substrate ETLYFQS: 0.104 | area with substrate EVLYFQS: 0.101 | area with substrate EWLYFQS: 0.102 | area with substrate EYLYFQS: 0.118

MGESLFKGPRDYNPISSSFCHLTNESDGHTTSLYGIGFGPFIITNKHLFRRNNGTLVVQSLHGVFKVKDTTTLQQHLVDGRDMIIIRMPKDFPPFPQKLKFREPQREERICLVTTNFQTKSMSSMVSDTSCTFPSGDGIFWKHWIQTKDGQCGSPLVSTRDGFIVGIHSASNFTNTNNYFTSVPKNFMELLTNQEAQQWVSGWRLNADSVLWGGHKVFMVKPEEPFQPVKEATQL [I19F]
area with substrate EALYFQS: 0.0846 | area with substrate ECLYFQS: 0.0837 | area with substrate EELYFQS: 0.0915 | area with substrate EGLYFQS: 0.0571 | area with substrate EHLYFQS: 0.0694 | area with substrate EILYFQS: 0.0681 | area with substrate EKLYFQS: 0.0755 | area with substrate ELLYFQS: 0.0801 | area with substrate EMLYFQS: 0.0775 | area with substrate EPLYFQS: 0.0886 | area with substrate EQLYFQS: 0.0858 | area with substrate ERLYFQS: 0.0724 | area with substrate ESLYFQS: 0.0906 | area with substrate ETLYFQS: 0.0691 | area with substrate EVLYFQS: 0.0588 | area with substrate EWLYFQS: 0.0611

MGESLFKGPRDYNPISSSLCHLTNESDGHTTSLYGIGFGPFIITNKHLFRRNNGTLVVQSLHGVFKVKDTTTLQQHLVDGRDMIIIRMPKDFPPFPQKLKFREPQREERICLVTTNFQTKSMSSMVSDTSCTFPSGDGIFWKHWIQTKDGQCGSPLVSTRDGFIVGIHSASNFTNTNNYFTSVPKNFMELLTNQEAQQWVSGWRLNADSVLWGGHKVFMVKPEEPFQPVKEATQL [I19L]
area with substrate EALYFQS: 0.124 | area with substrate ECLYFQS: 0.116 | area with substrate EDLYFQS: 0.114 | area with substrate EELYFQS: 0.172 | area with substrate EFLYFQS: 0.123 | area with substrate EGLYFQS: 0.123 | area with substrate EHLYFQS: 0.123 | area with substrate EILYFQS: 0.102 | area with substrate EKLYFQS: 0.135 | area with substrate ELLYFQS: 0.122 | area with substrate EMLYFQS: 0.134 | area with substrate EPLYFQS: 0.154 | area with substrate EQLYFQS: 0.14 | area with substrate ERLYFQS: 0.114 | area with substrate ESLYFQS: 0.0976 | area with substrate ETLYFQS: 0.128 | area with substrate EVLYFQS: 0.0972 | area with substrate EWLYFQS: 0.112

MGESLFKGPRDYNPISSSICHLTNEGDGHTTSLYGIGFGPFIITNKHLFRRNNGTLVVQSLHGVFKVKDTTTLQQHLVDGRDMIIIRMPKDFPPFPQKLKFREPQREERICLVTTNFQTKSMSSMVSDTSCTFPSGDGIFWKHWIQTKDGQCGSPLVSTRDGFIVGIHSASNFTNTNNYFTSVPKNFMELLTNQEAQQWVSGWRLNADSVLWGGHKVFMVKPEEPFQPVKEATQL [S26G]
area with substrate EALYFQS: 0.134 | area with substrate ECLYFQS: 0.118 | area with substrate EELYFQS: 0.118 | area with substrate EFLYFQS: 0.0902 | area with substrate EPLYFQS: 0.0959 | area with substrate ERLYFQS: 0.0922 | area with substrate ESLYFQS: 0.0912 | area with substrate ETLYFQS: 0.104 | area with substrate EWLYFQS: 0.0879 | area with substrate EYLYFQS: 0.0673

MGESLFKGPRDYNPISSSICHLTNETDGHTTSLYGIGFGPFIITNKHLFRRNNGTLVVQSLHGVFKVKDTTTLQQHLVDGRDMIIIRMPKDFPPFPQKLKFREPQREERICLVTTNFQTKSMSSMVSDTSCTFPSGDGIFWKHWIQTKDGQCGSPLVSTRDGFIVGIHSASNFTNTNNYFTSVPKNFMELLTNQEAQQWVSGWRLNADSVLWGGHKVFMVKPEEPFQPVKEATQL [S26T]
area with substrate EALYFQS: 0.095 | area with substrate ECLYFQS: 0.0988 | area with substrate EFLYFQS: 0.094 | area with substrate EHLYFQS: 0.0817 | area with substrate EILYFQS: 0.0888 | area with substrate EKLYFQS: 0.0974 | area with substrate ELLYFQS: 0.0674 | area with substrate EMLYFQS: 0.101 | area with substrate EPLYFQS: 0.0795 | area with substrate EQLYFQS: 0.125 | area with substrate ESLYFQS: 0.1 | area with substrate ETLYFQS: 0.0951 | area with substrate EVLYFQS: 0.0889

MGESLFKGPRDYNPISSSICHLTNEADGHTTSLYGIGFGPFIITNKHLFRRNNGTLVVQSLHGVFKVKDTTTLQQHLVDGRDMIIIRMPKDFPPFPQKLKFREPQREERICLVTTNFQTKSMSSMVSDTSCTFPSGDGIFWKHWIQTKDGQCGSPLVSTRDGFIVGIHSASNFTNTNNYFTSVPKNFMELLTNQEAQQWVSGWRLNADSVLWGGHKVFMVKPEEPFQPVKEATQL [S26A]
area with substrate EALYFQS: 0.0337 | area with substrate ECLYFQS: 0.094 | area with substrate EDLYFQS: 0.106 | area with substrate EELYFQS: 0.0837 | area with substrate EFLYFQS: 0.0852 | area with substrate EGLYFQS: 0.0773 | area with substrate EHLYFQS: 0.0859 | area with substrate EILYFQS: 0.0805 | area with substrate EKLYFQS: 0.102 | area with substrate ELLYFQS: 0.0969 | area with substrate EMLYFQS: 0.102 | area with substrate EPLYFQS: 0.129 | area with substrate EQLYFQS: 0.0522 | area with substrate ERLYFQS: 0.0843 | area with substrate ESLYFQS: 0.0934 | area with substrate ETLYFQS: 0.099 | area with substrate EVLYFQS: 0.0876 | area with substrate EWLYFQS: 0.0874 | area with substrate EYLYFQS: 0.0906
